A number of entries come with more than one value. They are shown here; other results are not. An entry can have further records. The values listed for one entry are repeats in other runs, samples, wells, individuals or studies. Additions like (4×) count equal records among those shown. Marks such as [2022-09] give the month of the run.
System: SW 1271 complex tumor spheroid viability
Test: Anticancer human tumor SW 1271 cell line growth inhibition;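 further: spheroids exposed to agents for seven days before readout; percent of DMSO vehicle control luminescence so 100% = vehicle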
Details: stronger effect = lower value
Text: Multicellular complex tumor spheroid response to DNA repair inhibitors in combination with DNA-damaging drugs
This study explores the anticancer activities of DNA-damaging drugs and inhibitors of DNA damage repair, both as single agents and in combinations. Complex tumor spheroids comprised of malignant cells, endothelial cells and mesenchymal stem cells served as an in vitro model for human solid tumors. This model system incorporates physiologically relevant features and patient-derived or established malignant cell lines with clinically relevant genetic alterations from many tumor types. Twenty-six patient-derived or established malignant cell lines were evaluated representing sarcoma, melanoma, small cell lung cancer (SCLC), non-small cell lung cancer (NSCLC), as well as bladder, ovarian and pancreatic cancers. The concentration ranges selected for each drug and investigational agent were based upon clinically achievable concentrations if the clinical Cmax of the agent was known.
Compounds. The drugs and compounds olaparib (NSC753686), talazoparib (NSC767125), berzosertib (NSC777718), elimusertib (NSC800525), nedisertib (NSC802822), VX-984 (NSC792969), AZD-1390 (NSC803789), temozolomide (NSC362856), topotecan (NSC609699), trabectedin (NSC813783), staurosporine (NSC755774), and gemcitabine (NSC613327) were obtained from the National Cancer Institute (NCI) Developmental Therapeutics Program Chemical Repository. The FDA-approved anticancer drug set is available from the Developmental Therapeutics Program at https://dtp.cancer.gov/organization/dscb/obtaining/available_plates.htm. […] The stock solutions were prepared in dimethyl sulfoxide (DMSO, Sigma-Aldrich, St. Louis, MO, cat. D2650) at 400-fold the tested concentration and stored at -70 degrees C. Prior to their use, the stock solutions were diluted in fresh medium and the final DMSO concentration in the assay was 0.25% (v/v). All drugs and investigational agents were tested over a range starting from a high concentration at or near the clinical Cmax and decreasing in half-log increments. If the clinical Cmax for an agent had not been determined, the highest concentration tested was 10 microM.
Cell Lines. The patient-derived cancer cell (PDC) lines: 156681-154-R-J1-PDC, 283228-195-R-J1-PDC, 287954-098-R-J1-PDC, 292921-168-R-J2-PDC, 349418-098-R-PDC, 425362-245-T-J1-PDC, 556581-035-R-J1-PDC, and BL0293-F563-PDC were received from the NCI Patient-Derived Models Repository (PDMR, https://pdmr.cancer.gov). The established cell lines HS-SY-2 (RRID:CVCL_8719), MPNST, and SYO-1 (RRID:CVCL_7146) were obtained from the Sloan Kettering Institute. The alveolar soft parts sarcoma cell line ASPS-1 (RRID:CVCL_S738) was established at the NCI and grown from internal seed stocks. […]

SMILES	viability, T/C (compound alone 0.00949 µM)	viability, T/C (compound alone 10 µM)	viability, T/C (compound alone 31.6 µM)	viability, T/C (compound alone 100 µM)
CC[C@@]1(O)C(=O)OCc2c1cc1n(c2=O)Cc2cc3c(CN(C)C)c(O)ccc3nc2-1	39.4, 48.8, 47.2, 48, 49.1% [2019-11] and 60.9, 52.7, 54.3, 55.1, 34.1% [2019-12]			
Cn1nnc2c(C(N)=O)ncn2c1=O		102 (2×), 106, 105, 96.2, 101 (2×), 84.4, 97.2, 117%	103 (2×), 111, 105 (2×), 106, 101, 29.9, 102, 109%	84, 95.7, 89.5, 91.5, 85, 91.2, 10.4, 85.3, 87.5, 53.9%

From PubChem BioAssay AID1845215 (Molecular Pharmacology Branch, DTP, NCI, 2023)
